Sequences with one replicate were seen in a single cluster, so their values are uncertain.
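Note: ATP exposure 15 min at 22 °C before imaging.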

This series concerns ATP. Description: switch fluorescence ratio, 500 uM ATP over buffer (Cy3 cluster intensity, sum of 5 cycles each) (fold (ratio)); higher = stronger signal-on switching upon ATP binding; sequences stand for … in TCGTCGGCAGCGTCAGATGTGTATAAGAGACAGTTTTTTTTTTTTTTTTTTTTTTTTT…TC. As to conditions: aptamer strand: ATP DNA aptamer (quencher-CACCTGGGGGAGTATTGCGGAGGAAGG + anchor), 100 nM annealed; ATP concentration: 500 uM; one replicate. In outline: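 Cy3-labelled switching-strand clusters on a modified Illumina MiSeq flow-cell were annealed to 100 nM quencher-labelled ATP aptamer, imaged in selection buffer, then imaged after 15 min with 500 uM ATP at 22 °C. Five buffer/ATP cycles ran, with NaOH stripping and re-annealing between them. The fluorescence ratio is summed target-cycle over summed buffer-cycle Cy3 intensity per cluster, averaged per switch-domain sequence. Clusters outside 100-1000 RFU were excluded.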
Regarding GATAGAGCTA, the switch fluorescence ratio worked out at 0.992.
The value for GTAAAAATG was 0.993; that for CAATTGAGAA was 0.971; that for GAGTACTGAT was 1.02.
With TCCGTTTCCA, the switch fluorescence ratio is 1.05.
The value for GAAGTCCATT was 0.983; that for GTTTGGGAAT was 0.99; that for CCAAACTAGA was 0.918.
As to CAGCGACTTG, the switch fluorescence ratio is 0.936.
The figure for CTCTACTTCC is 2.15.
The figure for GTGACACGAG is 1.
The figure for CGGATTGGGT is 1.01; for AAAGACGCAC it is 1.66.
With TCTCAGACGA, the switch fluorescence ratio came out at 1.02.
As for TTTCGGTCCA, the switch fluorescence ratio came to 1.03.
Regarding GGTTGGCCTT, the switch fluorescence ratio worked out at 0.985.
The figure for GGTTGGATTC is 1.03.
On to GAAGTCTGGT, for which the switch fluorescence ratio amounted to 0.986.
The value for GAACTCCTCC was 1.77; that for TAGATCTAAT was 0.964; that for GACGGTTTCA was 0.979.
The figure for TATAATTTGC is 1.07.
The value for ACTCAGGAAT was 2.05; that for TAAATTGTTA was 0.97; that for GAATCATTGG was 1.01.
For the sequence CACTAGTCC, the switch fluorescence ratio was 1.62.
For GCTGCGGAAC, the switch fluorescence ratio came to 1.81.
For the sequence TTCCCGGGGC, the switch fluorescence ratio was found to be 1.07.
The figure for GACTATTATA is 1.03; for GGAAGGGTAA it is 1.39; for AGTCGAATTA it is 0.984.
As to GCAGTAGTTC, the switch fluorescence ratio is 1.13.
Regarding CGATCTCAGT, the switch fluorescence ratio was 0.938.
Take TTTATATAAC: the switch fluorescence ratio is 1.04.
With GGAAGTAAGA, the switch fluorescence ratio amounted to 0.987.
The figure for TAAATGTGTC is 1.02.
TGGAGTTGTC: the switch fluorescence ratio was found to be 1.09.
The value for AAATTTAATA was 0.988; that for CGTGAAACGC was 1.01; that for TATGTTCTCC was 1.03.
Consider TCTTTGCGAG, for which the switch fluorescence ratio was 1.01.
Take GGCAAAAGGT: the switch fluorescence ratio was found to be 1.
The value for ACGATACATT was 1.27; that for TAAGTTGATG was 1.05; that for TCATGATTCA was 0.994.
As for TCGTAGGGAT, the switch fluorescence ratio came out at 1.49.
The value for ATTTCTATGC was 1.04.
As for ATTAGAACGT, the switch fluorescence ratio turned out to be 1.03.
The value for ATTTCTGGCA was 1.02; that for TCAATATATT was 0.977.
Consider TGTTCCGATC, for which the switch fluorescence ratio turned out to be 1.09.
The figure for AAGACGGTTC is 1.01; for ATCGTCGGCA it is 1.09.
For the sequence TGATTATATA, the switch fluorescence ratio amounted to 1.01.
As to ACGTTCCAAC, the switch fluorescence ratio came to 1.13.
With ACTGGCGCAT, the switch fluorescence ratio turned out to be 1.13.
The figure for TAGGGCCGTA is 1.03; for CGCCCTGTG it is 2.34.
The value for TAGCGCCAA was 1.08; that for TTGCACTCCC was 2.26; that for GTTGGTCACG was 0.989.
The figure for CGCGTGAAAA is 1.04; for CAGGTGCTGA it is 1.16; for GGTGGGAGCG it is 0.984.
Take AAAATGAACC: the switch fluorescence ratio turned out to be 1.01.
On to AGCTCAATCT, for which the switch fluorescence ratio turned out to be 0.994.
The figure for TAAAGGAGGC is 1.06.

The record behind these values is the supplement of paper PMC10126150.
